Test results reported in the RNAGym collection of RNA variant scans (doi:10.1073/pnas.2313332121).
Variants at the floor of the assay are shown more often than the library holds them.

B1: TPR 5TU (parent)
chain: GGAUCUUCUCGAUCUAACAAAAAAGACAAAUCUGCCACAAAGCUUGAGAGCAUCUUCGGAUGCAGAGGCGGCAGCCUUCGGUGGCGCGAUAGCGCCAACGUUCUCAACUAUGACACGCAAAACGCGUGCUCCGUUGAAUGGAGUUUAUCAUG

Variants of: B1
Experiment: polymerase ribozyme fitness, log enrichment relative to wild type (log ratio); higher = more active; in vitro selection for triplet polymerase activity
Summary of the method: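 Fitness measures genotype enrichment against wild-type enrichment on a logarithmic scale, with inverse-variance-weighted averaging of replicates. The logarithm is base 2, and genotypes were kept only with ≥10 input reads and ≥1 read per output in Illumina sequencing. The sequenced libraries came from one triplicate in vitro selection round, including frozen incubation at −7 °C, of PCR-built, transcribed mutant libraries of each subunit of a heterodimeric triplet polymerase ribozyme.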

Polymerase ribozyme fitness (log ratio), -4.01:
G11A C85U G92C G143A

Polymerase ribozyme fitness (log ratio), -3.19:
C10U U55G

Polymerase ribozyme fitness (log ratio), -3.26:
G11A A39U A97C

Polymerase ribozyme fitness (log ratio), -2.07:
C10U G141A

Polymerase ribozyme fitness (log ratio), ≤ -4.2:
C10U G84A U101A A115U A121G G124A
C10G C38U C69A A107U
C10U U44G U55A C93A A120G
C10G U13G A16C U56A G92C C105A C114U
C10U A16U U44G G50C C79G A97U A120C
C10G C35U U55C C75U G86U U151G
C10G U13G A17U A23U A29G A52G G59U C87A A97U
C10U A19U A26C C27A C76G G81C U148C
C10U C27U U44G A91G C116G G141A
C10G G42A C96G U111G C116G G140C
G11A G62C C93G A98C
C10U C54A C72U G84U A98U C125A
G11A A23U A66C G92A C114U C125A
C10G A97U U130G
C10U C27G C54U C95G C96G A110G
C10U U15G G50C G62A C72U A106U U109G A119U C123U U139C
C10U C14G A17G C85A C108G A113C
C10U A12U G42A G67C G92U A120U G128A
G11A G25C C35G C75G C79U C93G
C10U C32A C51G A106G A142C U148A
G11A C14U U33G U44A C69A C79A C85U A97U
G11A A12C A23C G46A A73U G80C A97U U109A U145A
C10G C32U C38U A49G U109G A120U G128C
G11A A73G G92A A121G
C10U G46A G92A G140A G141U
C10G U44G C93A U134G G141U G152U
G11A A40G G74A A89C C95G A120C G141A
C10U A52U U90A C93G C96U
C10U U31G C85U C93A
C10U A21U G50A G71A C76G A89C C96G A113G A119U U127C
C10G C35A G59U U61A G74U A107G C108U A119G
C10U U33G A41C G48U G81A C114G U145G
C10U A49G U53A G83C
C10U C18G U45G C51U G83C G133U
C10U U45A C99A
C10U A49U G67A U77A A91G G100A U134G
C10G A52C G70U C85G G117U
C10G C35U A37U A41U C43U U55A G92U C132U
C10G G83C U90G A91G
C10U U109G A142C C149A
C10U A16C G68A U77A
G11A A23G G50A A121U
C10U U56A U78G C87G
C10U G84C C87U U90C G94U C132A U145C
C10U A41C G74U A150U
C10U G42C G88U C105G G143U
C10U C131A
C10G U44G A49C A52C A64C G74C U104G A122G G141A
C10U A30C A41G U44C G70U U78C C95G A119C
C10U C43U A60G A73C U77G
C10U G25C U44A C85G C96G A142G
G11A A21U C87A
C10U A12U A26G C35U
C10U G83C C85A A89G C118G U135G
C10G G59A A91G G100A C131A U135G
G11A A21C A29G U33C G117A G143U
G11A C54U C69U C79A G92A U104A
G11A A17G C18U A21C G50C A60C C75A
C10U A19G A23C G94A C96U A107C C114U C118U
C10U U15C A24U A29G A49C C75U C93G C116U G133U U139C
C10U U77G C87A A91C C108U G133A
C10U C14G C32A C76A G83U G88C C93G
G11A A41C G50A C95G A138U
G11A A16G C72G C93A C95A
C10U U33G C43U U55A G59A C87A C95A A121G
C10G U45A G46A G83C C87G C96A A107U C116A C123U U144C
G11A C27A A73C G74A G81A A89U C93G G126U
G11A C32A C93U
G11A C43U C54U A106U C108G G112A
C10G U55G C103A
G11A U15G G46A A47G A60G G92C C96A
C10U A52U A60C G88U
C10G U77A C93U U144G
C10U G80C A107U
C10U A20C G88C C108A
C10U C38U A41C C95U G141A
C10U C18U U44G A60G G92A
C10U A16U A21G A73G A91U
C10G C51U G92A G124C
C10U A17C A21G C54A C76G G86U U144G
G11A A26U G46C U56A
C10U G48U C54A C85A A142G
C10G A73U G128U
G11A A24G A60U U78C G92A G100A
C10G U13G C14U U33A A66C U134G
C10U A16G A52C C57A C85G G124A
C10U A12C A41G G50C C93G C103U C123A U127C
C10U A30C C103G
C10U C35U G68U G88A U90A
G11A A24C A28U C85U C87A G141C
G11A U56A C76U U111C U148A
G11A A20U A26G G50C C57G C87U A142U
C10U G67C G88A U144A A150U
C10G G11C G68U A137U
C10U G11U A29C U44G U55A G68A G71U G80A C93A A98U A138C
C10U A22G G94C
C10G G50A C57U G65A C69G G74U C79G G88U A142C
C10G A60U U77A G84A A115U C149U
C10G U53A C57U G86C A106G C108G A113G U127G
C10U U13G U45A G46A G58C C63U G141U
C10G G11U U13G A40G
C10U A66G A91G A137G U144C U146C
G11A A40G A49C U61A G81A C125A
G11A U44C G68U U77G C87U
G11A A39G G46U C51U A64C G71A C95A A121G
C10U U44A U55A C87U G88C U102C G133C
C10G U56A C57U C69U C95A C99U C108U A121U A147G
C10G C14U A17C G46A C57U A89C A98G U139G G141U
G11A A17U A41U C54U A60U U61A
C10G C14U G50C C54A C76G C105G
G11A U15G A17C A20U U33C A64G C93G A110G A147U
C10U G25U A40U C79U G84A A142C
C10G U82C C96U A98G U104G C116A U134A
G11A A91C
G11A C14G A19U A29U A40U C76U A107G A110G
C10U A16U U55A G83C U104G
C10G G88C C96G
G11A C35U C51U U61G C63U A64C C85G U90G G140A
C10G C38U A41C A60G G74A
C10U A29U C57U C85G C87U
C10U A12C G34A G92C A121C
C10U C27A C38G A39U G58A C87U U144A
G11A A19U C36A A37U C85G C96U A97C G136U G141U
C10G C32U C75U C85U A121C
C10U G34A C57G C87A C95U C123U A137C
C10U A23G G50U U53A G71C C87A A120U
G11A C14G U53A U56G C96U A142C
C10U A19G A52G G71C C93A
G11A U13G A17G G25C C75A G80C C85U U111C C114A G140A
G11A A40G C54G G74A G83C C105G
C10U A17U C35U A60G G68A G80A C96U A98G
G11A A52U C57A U78G C85A G92U G94C A119U G128C U145A
G11A A24U A30U U56G C79G G83C U90A G92A C105A A138C
G11A U13G A17C C18G A29U A30U A49C C76U C87G
G11A U82G C85U C95A A110U
G11A A23C C27U A28C U53A C54A U77C G84U U146A
C10U A29C A49C A60C C75G U77G
G11A U44A U45A C57A C63A G70A C93A C103A A107C
C10U A30G C87U U134A G143A U145G
C10U C38U C57U G117A U139A
G11A A28C G83C G128U U146A U151C
C10U C35U A37U G58A C63A U109G A142G
C10U A23C A91C G140A A150G
C10U G25U A29U C87A
C10U A28G G50U C57U C75U C95U
C10U A22G A49G A142C
C10U U15G A23U C43U U82C G92U U104C
G11A U44G G80C C93A G94U
C10G C93G C132G
C10U A29U A30C U33A C87G G92A C95G A113G
C10G C38U C51U U56A G80A G94U A113U G126A
C10U A21U A41U G42A C76U G80A C85U A97C G133C G141A U146G C149U
C10U G25C G80A C87G
G11A A26C A41G G67U G68A C69U G88A C132U A138U
G11A A30G C76U U77G G81A U82C G88C U101G G140C
G11A C51U G84A C85G A97G C114G A120G C125U C131G
G11A G34A G42A U55G C93G
C10G C85G

Polymerase ribozyme fitness (log ratio), -2.69:
C10U G94A

Polymerase ribozyme fitness (log ratio), -3.28:
G11A A39U

Polymerase ribozyme fitness (log ratio), -4.13:
G11A A52G U53A C54A G84U G128U C132U

Polymerase ribozyme fitness (log ratio), -3.16:
C10U G50U C95U

Polymerase ribozyme fitness (log ratio), -2.91:
C10U U55A
